Experimental data published in PubChem BioAssay AID1468 (National Center for Advancing Translational Sciences (NCATS), 2008).
The whole screen tested about 280,000 compounds, of which about 1,100 (0.39%) were called active. Inconclusive results, whose numbers are uncertain, are shown with a selection of clear calls. The call rests on the fitted dose curve; in most records, active means well fitted inhibition curve with a large enough effect; inconclusive means small, poorly fitted or top-dose-only effect, or effect the other way; inactive means flat fitted curve, though single readings scatter. A potency beside an inconclusive call is a rough fit, not a confirmed value.

target: Microtubule-associated protein tau (Homo sapiens) (UniProt P10636); test: qHTS for Inhibitors of Tau Fibril Formation, Fluorescence Polarization; details: K18 P301L tau heparin fibrillization, Alexa594 FP, 6 h; series mostly up to 57.7 µM; activity, negative = inhibition: at the top concentration; further: nearly all actives have a fitted effect of over 55% in size
Procedure, shortened: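 Human tau K18 […] P301L fragment, 15 uM unlabeled plus 0.24 uM Alexa 594-labeled tau (final), with compound and 20 uM heparin in 100 mM sodium acetate pH 7; 6 hr at 37 C, then Alexa 594 FP read.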
On the % scale 0 is the no-effect control and ±100 the full control effect; potency means the concentration at half of the fitted maximal effect; tags describe the fitted curve by direction and shape.

Sequence of UniProt P10636 (P10636 whole entry, looked up, the tested form may be a part): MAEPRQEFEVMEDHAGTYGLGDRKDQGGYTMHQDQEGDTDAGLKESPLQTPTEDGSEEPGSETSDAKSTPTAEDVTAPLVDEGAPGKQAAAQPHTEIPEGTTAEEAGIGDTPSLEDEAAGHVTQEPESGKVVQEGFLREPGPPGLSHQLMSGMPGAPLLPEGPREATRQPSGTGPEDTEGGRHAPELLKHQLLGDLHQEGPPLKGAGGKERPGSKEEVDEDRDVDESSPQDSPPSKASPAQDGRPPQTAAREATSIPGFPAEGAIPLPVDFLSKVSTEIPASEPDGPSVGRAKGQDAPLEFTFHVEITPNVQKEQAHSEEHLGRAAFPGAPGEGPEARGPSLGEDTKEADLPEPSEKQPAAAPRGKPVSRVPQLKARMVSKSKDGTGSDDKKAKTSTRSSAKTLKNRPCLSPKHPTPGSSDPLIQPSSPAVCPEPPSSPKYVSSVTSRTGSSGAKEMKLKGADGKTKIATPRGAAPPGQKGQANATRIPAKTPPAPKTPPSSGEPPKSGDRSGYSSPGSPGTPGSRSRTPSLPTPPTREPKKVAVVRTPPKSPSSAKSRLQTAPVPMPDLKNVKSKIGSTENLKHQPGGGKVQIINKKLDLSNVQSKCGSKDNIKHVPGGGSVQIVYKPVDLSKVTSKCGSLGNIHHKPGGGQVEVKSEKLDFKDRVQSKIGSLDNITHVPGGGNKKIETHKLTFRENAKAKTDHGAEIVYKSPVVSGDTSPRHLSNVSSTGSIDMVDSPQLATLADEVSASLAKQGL

Potency, active:
CNc1sc(C(=O)c2cccs2)c(N)c1-c1nc2ccccc2s1 31.6 µM

Potency, inconclusive:
COc1cc(/C=N/N2C(=O)CSC2=S)cc(Br)c1O 39.8 µM [inhibitor, single point]
COc1ccc(C(=O)Oc2ccc(C(=S)N3CCOCC3)cc2)cc1 28.2 µM [inhibitor, partial curve]
O=C(NCC1CCCO1)C(c1cccs1)N(C(=O)c1ccc(-c2ccccc2)[nH]1)C1CCCC1 (stereo unspecified) 0.158 µM [inhibitor, full curve, poor fit]
O=C(COC(=O)c1cc(-c2ccccc2)nc2ccccc12)Nc1ccc2c(c1)OCO2 39.8 µM [inhibitor, single point]
CCc1ccc(C2C(C#N)=C(N)SC(N)=C2C#N)s1 25.1 µM [inhibitor, partial curve]
Cc1cccc(Nc2nc3c(S(=O)(=O)c4ccc(Br)cc4)nnn3c3ccsc23)c1C 1 µM [inhibitor, full curve, poor fit]
CC(=O)Nc1nc(-c2ccc3c(c2)CCN3S(C)(=O)=O)cs1 11.2 µM [activator, partial curve]
Clc1ccc(/C=C/c2nc3ccccc3[nH]2)c(Cl)c1 39.8 µM [inhibitor, single point]
O=C(CCCN1C(=O)c2cccc3cccc(c23)C1=O)NCc1cccs1 39.8 µM [inhibitor, single point]
Cc1ccc(N2C(=O)CCSC23C(=O)N(Cc2ccc(F)cc2)c2ccccc23)cc1 (stereo unspecified) 20 µM [inhibitor, single point]
Cc1cccc(CC(=O)Nc2c(C(=O)Nc3cccc(F)c3)oc3ccccc23)c1 11.2 µM [inhibitor, partial curve]
CC1CCN(C(=O)CSc2nnc(NC(=O)Nc3ccccc3)s2)CC1 15.8 µM [inhibitor, partial curve]
CCc1ccc2oc(-c3ccc(NC(=O)c4cccc(Cl)c4Cl)cc3)nc2c1 10 µM [inhibitor, partial curve]
CCOc1ccc(C(C)=O)cc1Cc1c(O)nc(N)[nH]c1=O 0.282 µM [activator, full curve, poor fit]
CCOC(=O)C(C)n1nc(-c2ccccc2)c2ccccc2c1=O (stereo unspecified) 1.12 µM [inhibitor, full curve, poor fit]
COc1ccc(C2CC(=O)N3CN(Cc4ccco4)CSC3=C2C#N)cc1 (stereo unspecified) 28.2 µM [inhibitor, partial curve]
O=C(Nc1ccn(Cc2ccccc2F)n1)c1ccc(COc2ccccc2Cl)cc1 22.4 µM [inhibitor, partial curve, poor fit]
O=C(O)c1cccc(COc2ccc(CO)cc2Cl)c1 0.141 µM [inhibitor, full curve]
CCOc1cc(NC(=S)NCC(C)C)c(OCC)cc1NC(=O)c1cccs1 22.4 µM [activator, partial curve, poor fit]
COC(=O)[C@@H]1[C@@H](C#N)C2(c3ccccc3-c3ccccc32)N(c2ccc(Cl)cc2)N1C#N 25.1 µM [inhibitor, single point]
CCOC(=O)c1ccc(NC(=S)N2CCSC2c2ccc(Cl)cc2)cc1 (stereo unspecified) 17.8 µM [inhibitor, partial curve]
COc1ccc(OC)c(/C=C/C(=O)NCCc2nc3ccccc3[nH]2)c1 31.6 µM [activator, single point]
Cc1ccn2c(Nc3ccc4c(c3)OCCO4)c(-c3ccc(N(C)C)cc3)nc2c1 14.1 µM [activator, partial curve]
COc1ccccc1CNC(=O)CSc1cc(C)[nH]c(=O)n1 39.8 µM [inhibitor, single point]
CC(=O)c1sc(N/N=C\c2ccc(Br)cc2)nc1C 6.31 µM [activator, partial curve, poor fit]
O=C(Cn1c(=O)n(-c2ccccc2Cl)c(=O)c2sc3ccccc3c21)NC1CCCC1 28.2 µM [inhibitor, partial curve, poor fit]
Cc1ccc2[nH]c(=O)c(CN(Cc3cccs3)S(=O)(=O)c3ccc4c(c3)OCCO4)cc2c1 35.5 µM [inhibitor, partial curve]
O=C1NCCN1Cc1cccc(Cl)c1 0.891 µM [inhibitor, full curve]
O=C(CCc1nc(-c2cccs2)no1)Nc1ccc([N+](=O)[O-])cc1 22.4 µM [inhibitor, single point]
CC(C(=O)Nc1ccccc1)n1nnc2sc3c(c2c1=O)CCCC3 (stereo unspecified) 14.1 µM [inhibitor, partial curve, poor fit]
S=C(NCc1ccc(Cl)cc1Cl)Nc1ccccc1 39.8 µM [inhibitor, single point]
CC(C)(C)N=C1SCC(C)(/C=N/O)S1 (stereo unspecified) 20 µM [inhibitor, partial curve]
Cc1ccc(NC(=O)C2CCCN2S(=O)(=O)c2ccc3nc(-c4ccccc4)[nH]c3c2)cc1C (stereo unspecified) 22.4 µM [inhibitor, partial curve]
COC(=O)c1cc(NC(=O)C2CC(=O)NC(=NCc3ccc(OC)cc3)S2)cc(C(=O)OC)c1 (stereo unspecified) 22.4 µM [inhibitor, partial curve, poor fit]
O=C(Cc1ccc(Cl)cc1)Nc1ccc(-c2cc3ccccc3oc2=O)c(Cl)c1 39.8 µM [inhibitor, single point]
COc1cc(/C=C2\S/C(=N/S(=O)(=O)c3ccc(C)cc3)NC2=O)c([N+](=O)[O-])cc1OC 44.7 µM [inhibitor, single point]
COc1cccc(NC(=O)Cn2c(=O)n(CCc3cccc(C)c3)c(=O)c3ccccc32)c1 8.91 µM [inhibitor, partial curve]
O=C(NNC(=O)C12CC3CC(CC(C3)C1)C2)c1ccccn1 17.8 µM [inhibitor, partial curve]
O=C1CC(c2cccnc2)c2cc3c(cc2N1)OCO3 (stereo unspecified) 2.51 µM [inhibitor, partial curve]
NC(=O)/C=C\c1cn(-c2ccccc2)nc1-c1ccc2c(c1)OCCO2 14.1 µM [inhibitor, partial curve, poor fit]
CC(=O)c1cccc(NC(=S)NCCc2ccc(Cl)cc2)c1 39.8 µM [inhibitor, single point]
O=C(C[n+]1cccc(CNC(=O)c2ccc(OC(F)F)cc2)c1)Nc1cccc(C(F)(F)F)c1 2.82 µM [inhibitor, partial curve, poor fit]

activity, negative = inhibition, inactive:
COc1ccc(-c2cc(=O)c3ccccc3s2)cc1 -1.7%
Cc1cc(NC(=O)CSc2ncc(C(=O)Nc3ccc(C)c(C)c3)c(=O)n2C)no1 -7.98%
CCOc1cccc(C(=O)N(Cc2ccc(F)cc2)Cc2ccco2)c1 -0.647%
Nc1nc(N)c(N=Nc2ccc(S(N)(=O)=O)cc2)c(=O)[nH]1 0.21%
Cc1ccc(Cc2nc3ccccc3nc2SCC(=O)NCc2ccccc2Cl)cc1 -7.7%
Cc1ccc(NC(=S)NCc2cccnc2)cc1 -6.33%
O=C(c1cccnc1)N1CCN(C(=O)c2ccco2)CC1 -4.06%
COc1ccc(Nc2nc(-c3cccs3)nc3ccccc23)cc1 15%
COc1cc(C(=O)Nc2cc(-c3ccccc3)[nH]n2)cc(OC)c1OC -15.4%
CC(C)NC(=O)NC1C2CC3CC(C2)CC1C3 (stereo unspecified) -2.67%
COc1ccc(CCNC(=O)Cn2c(-c3ccc(F)cc3)cc(C(C)=O)c2C)cc1OC 1.57%
CCOC(=O)C1CCN(C(=O)CSc2n[nH]c(-c3ccc(OC)cc3)n2)CC1 -3.84%
CC1=CC(=C(C#N)c2nc3ccccc3s2)C=C(C)N1c1ccc(F)cc1 16.2%
Cn1c(=O)n(C)c2cc(N3CCOCC3)c(NS(=O)(=O)c3ccc(Cl)cc3)cc21 -3.64%
O=C(NC1CCCC1)c1nc2c(nnn2Cc2ccccc2Cl)c(=O)[nH]1 7.79%
CC(C)=CC1C=C(C)C(C)C2C(=O)NNC(=O)C12 (stereo unspecified) -4.18%
CCN(CC)c1ccc2c(Nc3ccccc3)c(C=O)c(=O)oc2c1 2.78%
COc1ccc(C(C)=O)cc1COC(=O)c1cnc(C)cn1 9.18%
CCn1nnnc1NC(=O)c1cc(Cl)c(OC)c(Cl)c1 4.94%
COc1ccc(-c2c(C)nn3c(N4CCN(c5cc(Cl)ccc5C)CC4)cc(C)nc23)cc1OC 8.88%
CCOC(=O)CCN1C(=O)[C@H]2[C@H]3[C@H](O)[C@H](O)C/C(=N/NC(=O)OCc4ccc(OC)cc4)[C@@H]3CC[C@@H]2C1=O -8.03% [at 11.6 µM]
Cc1ccc(S(=O)(=O)C(CNS(=O)(=O)c2ccc(F)c(C)c2)c2cccs2)cc1 (stereo unspecified) -8.05%
COc1cccc(NC(=O)Cc2nnc(SCC(=O)c3ccccc3)n2C)c1 7.32%
COc1ccc(CNC(=O)C(=O)NCC(c2cccs2)S(=O)(=O)c2cccs2)cc1 (stereo unspecified) -5.63%
Cc1cccc(Cn2c(=O)n(Cc3ccccc3)c(=O)c3sc4ccccc4c32)c1 -13%
CCCN1C(=O)SC(CC(=O)Nc2cccc3ccccc23)C1=O (stereo unspecified) -3.04%
CC(C)C(=O)Nc1cccc(C(=O)Nc2nnc(C(F)(F)F)s2)c1 -4.72%
Cc1ccc(Nc2nnc(SCc3cc(=O)n4cc(C)ccc4n3)s2)cc1 2.61%
